The text below walks through data of the RNAGym collection of RNA variant scans (doi:10.7554/elife.90254).

Read counts are not given, so values of variants with three or more changes are uncertain.

To fix the notation:
B1: LINE1-mini (parent)
chain: GGCAGAGCUCAACACAGCGUGGCAAAGUGGCUGUGGCUAGACUGCC

Variants of B1 are the subject of this series. Nature of the series: self-cleavage, relative activity (ratio to wild type); higher = more cleavage; in vitro, sequencing; the parent is a self-cleaving ribozyme.
As for C13U C18A G30C C31G, the self-cleavage stood at 0.02.

Regarding C13U A14U C18A G19U G21C G30U C37A, the self-cleavage was found to be 0.13.

For C13U A16C U20C U43C, the self-cleavage is 0.04.

With C13U G17U U28A, the self-cleavage came to 0.14.

As to C13G C15A G19A G33C, the self-cleavage turned out to be 0.01.

C13G G17A G22C C23A G33U A39C: the self-cleavage is 0.

C13U A16U G22U A39G: the self-cleavage came to 0.11.

Consider C13G U20A A25C C31U, for which the self-cleavage was 0.03.

Regarding C13U G21C G36C, the self-cleavage was 0.05.

As to C13G C42U C45G, the self-cleavage came out at 0.04.

On to C13U C18G C23U C37U C46G, for which the self-cleavage stood at 0.02.

Turning to C13G C23U G40U C45G, the self-cleavage was 0.08.

In the case of C13G C15G G27C U34G U38A C45A, the self-cleavage came to 0.03.

As for C13G A25C U38A, the self-cleavage was found to be 0.02.

Regarding C13G A25C U38C, the self-cleavage was 0.01.

Turning to C13U C15G G22C, the self-cleavage is 0.03.

Turning to C13U A16C C31U A41G, the self-cleavage came out at 0.03.

In the case of C13G G17C G29U G40U, the self-cleavage stood at 0.3.

In the case of C13G G33A C37U, the self-cleavage turned out to be 0.01.

Take C13G U38C C46U: the self-cleavage is 0.01.

For the variant C13U A24U G36U A39U, the self-cleavage worked out at 0.16.

C13G C31U A41C: the self-cleavage turned out to be 0.05.

Regarding C13U C18U G19U U28A, the self-cleavage is 0.08.

For the variant C13U G17U U20C G29C, the self-cleavage came to 0.02.

With C13G C15G G21U G35C G36C, the self-cleavage turned out to be 0.01.

C13U C15A U43G: the self-cleavage was determined as 0.03.

Regarding C13G G21C A26C U38G, the self-cleavage is 0.01.

Take C13G A14U U20G C37U C45U: the self-cleavage amounted to 0.03.

As for C13U C15A A16U G19A C45A, the self-cleavage was 0.04.

As to C13G A26G C42A, the self-cleavage worked out at 0.62.

As for C13U A25G A41U C42U, the self-cleavage stood at 0.08.

On to C13U C23U G27U C31G, for which the self-cleavage turned out to be 0.04.

Consider C13G G17A U20C, for which the self-cleavage was found to be 0.02.

For the variant C13G A14G C15A G19C G33U C46U, the self-cleavage was determined as 0.07.

Turning to C13G C23G U43A, the self-cleavage worked out at 0.15.

C13G G19A A25C C31G: the self-cleavage came out at 0.06.

Consider C13U G22C G29A G40C, for which the self-cleavage is 0.08.

For C13U G19C U28C U43G, the self-cleavage was 0.3.

With C13G C23A U28A C31U U43A, the self-cleavage worked out at 0.02.

Regarding C13U G19C G33C, the self-cleavage was determined as 0.02.

For C13G A14C G44A, the self-cleavage is 0.11.

On to C13G A14C G44U, for which the self-cleavage amounted to 0.02.

With C13U A14U A25U U43G, the self-cleavage turned out to be 1.53.

As for C13U A16U U20A G40U, the self-cleavage amounted to 0.02.

In the case of C13U G19A U20C A25C, the self-cleavage amounted to 0.14.

In the case of C13G A24U C45U, the self-cleavage was 0.07.

On to C13U C23G G40A G44C C45U, for which the self-cleavage was determined as 0.04.

In the case of C13U A25C C31A U34G G35A, the self-cleavage was determined as 0.08.

On to C13G C18U G19A, for which the self-cleavage was found to be 0.09.

For C13G C18U G30U, the self-cleavage was 0.01.

For the variant C13U G17A A26G C46U, the self-cleavage was 0.01.

Regarding C13G G17C C31U U34C C42U, the self-cleavage amounted to 0.02.

As for C13G G21A C31G G35A U38C, the self-cleavage came out at 0.03.

For C13G G22U U32C, the self-cleavage was 0.14.

Take C13G G30A C37U: the self-cleavage came out at 0.05.

In the case of C13G C15A U20C A39C, the self-cleavage was determined as 0.02.

Regarding C13G A25G A39G, the self-cleavage was found to be 0.03.

As to C13U A16C C18A, the self-cleavage is 0.1.

Regarding C13U A16C C45U, the self-cleavage was determined as 0.03.

Consider C13G C23G U28A, for which the self-cleavage worked out at 0.03.

Take C13U C18G G27A C31U: the self-cleavage amounted to 0.01.

As for C13G G21C C23G U28A, the self-cleavage was 0.09.

For the variant C13G C23U G30U A41U, the self-cleavage amounted to 0.09.

For C13G G22A G36U, the self-cleavage is 0.07.

C13G G17A G27U G40C: the self-cleavage turned out to be 0.03.

For the variant C13U A25C U38C G40A, the self-cleavage is 0.03.

On to C13G G19U G22U U28A, for which the self-cleavage came to 0.07.

Take C13G A24G A39G: the self-cleavage turned out to be 0.03.

For the variant C13U A25G G35U G44U, the self-cleavage stood at 0.02.

Turning to C13G G44A C45A, the self-cleavage stood at 0.05.

As for C13U A16U U32A, the self-cleavage worked out at 0.04.

Turning to C13G G22A G27A C31G U32G, the self-cleavage was found to be 0.04.

Take C13G U20G G22U U32C U34C C46G: the self-cleavage came to 0.02.

With C13U A16U U32G A39G U43A, the self-cleavage is 0.05.

Turning to C13G A14C G40U U43G, the self-cleavage came to 0.01.

As for C13U G19U U28A C42U, the self-cleavage turned out to be 0.02.

In the case of C13G A24G G30A, the self-cleavage came to 0.04.

For the variant C13U A25U G30A, the self-cleavage worked out at 0.03.

Take C13U G17U U20C G22U C31A G35A C46G: the self-cleavage was 0.6.

C13G C15A U32C: the self-cleavage amounted to 0.44.

Take C13U A14C G30U G44C: the self-cleavage was 0.08.

With C13U A26C G40C, the self-cleavage came to 0.03.

As for C13G G36C G44U, the self-cleavage is 0.04.

C13G G27U G30C U43C G44C: the self-cleavage worked out at 0.01.

Turning to C13U G17C A25C, the self-cleavage is 0.11.

C13U G17C A25U: the self-cleavage amounted to 0.16.

As for C13G G22C A24U G40A C45A, the self-cleavage came out at 0.

With C13U C23G C42U, the self-cleavage worked out at 0.16.

With C13G C15U A39U, the self-cleavage was determined as 0.01.

With C13G C23A U28C G35C C37G, the self-cleavage was determined as 0.01.

With C13G C15G G22A G35C, the self-cleavage was 0.05.

As to C13U G22C U43A, the self-cleavage is 0.03.

Regarding C13G U32C G40U, the self-cleavage is 0.02.

Turning to C13G G17U A26C, the self-cleavage amounted to 0.04.

For the variant C13G G27U U28A C37U, the self-cleavage was 0.1.

Consider C13G C37U C42G, for which the self-cleavage worked out at 0.06.

On to C13G G44U C46U, for which the self-cleavage came to 0.06.

Regarding C13U A16G G17C U34C C42A, the self-cleavage amounted to 0.11.

With C13G C15G A24G, the self-cleavage amounted to 0.03.

Turning to C13U C23G A24C, the self-cleavage is 0.21.

Regarding C13U A14U U32A C37U, the self-cleavage is 0.09.

As for C13G G21C G40A, the self-cleavage was 0.05.

As to C13G A25C C46A, the self-cleavage came out at 0.16.

Consider C13G A26C U28G C45U, for which the self-cleavage worked out at 0.04.

On to C13U A26C U34A A39G, for which the self-cleavage worked out at 0.07.

For C13U C31U A41C C46U, the self-cleavage worked out at 0.

As for C13G A24U G35U U43A, the self-cleavage was determined as 0.05.

Regarding C13G A16C C23G, the self-cleavage stood at 0.01.

With C13G U32C C45A, the self-cleavage stood at 0.01.

Regarding C13U C15U U38G, the self-cleavage came to 0.04.

Regarding C13U A16C U43C, the self-cleavage was determined as 0.08.

Take C13G G22C U43C: the self-cleavage stood at 0.01.

On to C13U A14G G27A U34A A39C, for which the self-cleavage worked out at 0.06.

On to C13U C18U G22A, for which the self-cleavage amounted to 0.1.

On to C13U C18G C31U C42G, for which the self-cleavage is 0.02.

For C13U G21C C31U, the self-cleavage came out at 0.04.

As for C13U C23U G27A U32G C45G, the self-cleavage came to 0.27.

As to C13U G17C G30C G44A, the self-cleavage is 0.09.

Consider C13U C15G U28G, for which the self-cleavage turned out to be 0.14.

As to C13U A14U G22C U43C, the self-cleavage worked out at 0.01.

For C13U A14C U32G G40A, the self-cleavage came to 0.07.

For the variant C13G A25G G36U, the self-cleavage is 0.14.

On to C13G A14C U38A, for which the self-cleavage was found to be 0.

As to C13G A26C G30C, the self-cleavage amounted to 0.05.

Regarding C13U A24U G33U C42A C45U, the self-cleavage came out at 0.02.

As for C13U C23G G36A C42G, the self-cleavage is 0.08.

C13U A24G C46A: the self-cleavage was determined as 0.

For C13G G21C G29A, the self-cleavage came to 0.73.

With C13G G33C G36A U38A, the self-cleavage is 0.01.

In the case of C13U G22C C37U, the self-cleavage was 0.02.

For C13U G22C U28C, the self-cleavage was determined as 0.04.

With C13U A14G G40C, the self-cleavage was determined as 0.02.

Regarding C13G C42G G44A, the self-cleavage worked out at 0.

With C13U A14C U32G U34G, the self-cleavage amounted to 0.01.

As for C13U G17C G27U G40C, the self-cleavage is 0.12.

Regarding C13U G22C G35U C46U, the self-cleavage is 0.39.

Turning to C13U G19U U38A, the self-cleavage came out at 0.07.

As for C13G G21U A25G U32A G33C U38A G40A, the self-cleavage was determined as 0.08.

Turning to C13U G19C C46A, the self-cleavage was determined as 0.03.

Turning to C13G G33C G36A, the self-cleavage is 0.03.

Turning to C13U G22C U34A U43C, the self-cleavage was found to be 0.03.

For the variant C13U G17U A25G G29C, the self-cleavage is 0.13.

For C13G U34G C37G, the self-cleavage was 0.

With C13U C31A G33C C42A G44U, the self-cleavage was 0.03.

For the variant C13G C15A C18G G40U, the self-cleavage is 0.03.

With C13U C23A G30U C31A G40A, the self-cleavage turned out to be 0.02.

Take C13G G30A A41U G44U: the self-cleavage worked out at 0.02.

With C13G G27U U28G C31A, the self-cleavage stood at 0.15.

On to C13U C18U G29C G30U, for which the self-cleavage amounted to 0.04.

Take C13G U20A U38A: the self-cleavage was 0.07.

On to C13G G17A C45U, for which the self-cleavage was determined as 0.09.

Turning to C13U A14U C18A C31A C45A, the self-cleavage was found to be 0.04.

For the variant C13G G19C U20A, the self-cleavage is 0.08.

Take C13U G17U A25C A39U: the self-cleavage stood at 0.02.

Take C13U A16C C31A G33C A41U: the self-cleavage was determined as 0.05.

C13U C15U G22A: the self-cleavage turned out to be 0.17.

With C13G G30C C31G G35C, the self-cleavage was 0.47.

On to C13G G17A U28C, for which the self-cleavage is 0.02.

With C13G G27U A39G, the self-cleavage came to 0.1.

Take C13U G19A G22A G30C G44C: the self-cleavage worked out at 0.02.

Turning to C13U A16G G30U C45U C46A, the self-cleavage is 0.02.

With C13G G19C G36A, the self-cleavage came to 0.03.

Consider C13G U20G G21U U28G, for which the self-cleavage turned out to be 0.01.

Regarding C13G A16G G21C U32G G40U, the self-cleavage is 0.

With C13G G17A G19U G21A G40U, the self-cleavage stood at 0.01.

C13G A26U U28G U43A: the self-cleavage was determined as 0.02.

As for C13U A16C G36A G40U, the self-cleavage was 0.06.
